# Data published in PubChem BioAssay AID686979 (National Center for Advancing Translational Sciences (NCATS), 2013).
# Several values for one entry are separate records, joined by “and”; a condition that tells them apart may be missing. Identical values can stand only once. Out of some 420,000 compounds screened, about 50,000 (12%) were called active. Inconclusive means that the source gave no clear call. Such entries were picked first, then a sample of the others. Calls come from the whole dose curve; as a rule, active = well fitted inhibition curve with a large enough effect; inconclusive = small, poorly fitted or top-dose-only effect; inactive = flat fitted curve, though single readings scatter. Potencies of inconclusive entries are left out as doubtful fits.
# Experiment: qHTS for Inhibitors of human tyrosyl-DNA phosphodiesterase 1 (TDP1): qHTS in cells in presence of CPT; note: nearly all actives have a fitted effect of over 55% in size
# Conditions: chicken DT40 Tdp1-/-;hTDP1 cells + 20 nM CPT, ATP luminescence, 48 h
# In short: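 Chicken DT40 Tdp1-/- cells complemented with human TDP1, 400 cells/well, exposed to compounds plus 20 nM camptothecin for at least 48 h at 37 C; viability read as ATP content by CellTiter-Glo luminescence.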
# [1] = activity change, negative = growth inhibition: at 46.2 µM (top of the series) unless noted
# % is set by controls: 0 for no effect and ±100 for the full control effect; potency is the fitted concentration of half-maximal effect; tags give direction and shape of the fitted curve.
structure (smiles),measurement,setting,value
COc1ccc(-n2nc(C(=O)NCC(=O)N3CCN(Cc4ccc5c(c4)OCO5)CC3)c3ccccc3c2=O)cc1OC,Potency,[1],"inconclusive [inhibitor, partial curve]"
COc1cc(=O)n2c(c1C(=O)NCc1ccco1)CCN(Cc1ccc3nsnc3c1)CC2,Potency,[1],inactive
O=C(NCCc1ccccc1)C(=O)NCC1OCCN1S(=O)(=O)c1ccc(Br)cc1 (configuration not stated),Potency,[1],"inconclusive [inhibitor, single point]"
C/C(=C\C(=O)OCCCCCCCCC(=O)O)C[C@@H]1OC[C@H](C[C@@H]2O[C@H]2[C@@H](C)[C@H](C)O)[C@@H](O)[C@H]1O,Potency,[1],active: 1.06 µM and active: 1.03 µM
CCCC[n+]1c(-c2ccc(Cl)cc2Cl)csc1Nc1ccccc1,Potency,[1],"inconclusive [inhibitor, single point]"
CSc1ccc(C(=O)NCC(=O)O)cc1[N+](=O)[O-],Potency,[1],"inconclusive [inhibitor, single point]"
C[C@H](CO)N1C[C@H](C)[C@H](CN(C)Cc2ccncc2)Oc2cc(-c3ccccc3F)ccc2S1(=O)=O,Potency,[1],active: 14.6 µM
Cc1cc(F)ccc1S(=O)(=O)N1CCCOC1CNC(=O)C(=O)NCCc1c[nH]c2ccccc12 (configuration not stated),Potency,[1],active: 16.4 µM
Cc1cc(=O)n(CCCO)c(O)c1C#N,Potency,[1],inactive
Cc1ccc(NC(=O)c2cc3ccccc3o2)cc1Cl,Potency,[1],"inconclusive [inhibitor, single point]"
O=S(=O)(c1ccccc1)N1CCC[C@@]2(CCN(c3ccncc3)C2)C1,Potency,[1],"inconclusive [inhibitor, single point]"
Cc1cc(/C=C2\C(=O)NN(c3ccccc3)C2=O)c(C)n1-c1ccccc1O,Potency,[1],"inconclusive [inhibitor, single point]"
CCN1C(=O)C(C(=O)c2ccccc2)SC1=S (configuration not stated),Potency,[1],"inconclusive [inhibitor, single point]"
CCOC(=O)c1cnn2c(N)c(C#N)cnc12,Potency,[1],inactive
CCc1ccc(S(=O)(=O)N/N=C\c2ccc([N+](=O)[O-])o2)cc1,Potency,[1],"inconclusive [inhibitor, single point]"
Cc1ccc(NC(=O)CSc2nc3nc(C)c(Cc4ccccc4)c(C)n3n2)cc1,Potency,[1],"inconclusive [inhibitor, single point]"
Cc1ccc(SCc2[nH]nc3c2C2(CCSCC2)C(C#N)=C(N)O3)cc1,Potency,[1],inactive
CCOC(=O)c1ccc(NS(=O)(=O)c2c(C)nc3sccn3c2=O)cc1,Potency,[1],active: 16.4 µM
CCn1c(SCC(=O)Nc2cc3oc4ccccc4c3cc2OC)nnc1-c1cccs1,Potency,[1],"inconclusive [inhibitor, single point]"
O=S(=O)(c1ccccc1)N1CCC(O)(CSc2ccc(Cl)cc2)CC1,Potency,[1],"inconclusive [inhibitor, single point]"
Cn1nnnc1SCC(=O)Nc1cc(C(=O)O)cc(C(=O)O)c1,Potency,[1],inactive
NNC(=O)c1cccn(Cc2cccc(C(F)(F)F)c2)c1=O,Potency,[1],active: 14.6 µM
Cc1ccc(NC(=O)CN(C)C(=O)c2cccc(Br)c2)cc1,Potency,[1],"inconclusive [inhibitor, single point]"
N#C/C(=C\c1ccc(O)c(O)c1)C(=O)NCCCc1ccccc1,Potency,[1],"inconclusive [inhibitor, single point]"
Cc1cc(N/N=C/c2ccc(O)cc2)c2cccc(C)c2n1,Potency,[1],"inconclusive [inhibitor, single point]"
Cc1ncoc1C(=O)N1CCOc2ccc(CN3CCC(Oc4cccnc4)CC3)cc2C1,Potency,[1],inactive
COc1ccc(C(=O)NCC(c2cccs2)N2CCc3ccccc32)c(OC)c1 (configuration not stated),Potency,[1],"inconclusive [inhibitor, single point]"
CC1(C)Cc2c(sc3c2c(=N)n(Cc2ccco2)c(=O)n3CC(=O)Nc2cccc(Cl)c2)CO1,Potency,[1],"inconclusive [inhibitor, single point]"
COc1ccc(-c2cc(C(F)(F)F)n3nc(C(=O)Nc4cc(C(F)(F)F)ccc4Cl)cc3n2)cc1OC,Potency,[1],inactive
CCOC(=O)N1CCc2c(sc3c2c(=O)n(-c2ccc(CC)cc2)c(=O)n3CC(=O)NCC2CCCO2)C1 (configuration not stated),Potency,[1],active: 4.61 µM
CCC(=O)N1N=C(c2ccc(Cl)cc2)CC1c1ccco1 (configuration not stated),Potency,[1],active: 23.1 µM
Cc1ccc(CNC(=O)CCS(=O)(=O)c2ccc3c(c2)NC(=O)CS3)cc1,Potency,[1],inactive
O=C(CSc1ncnc2sc3c(c12)CCCC3)N1CCC(c2noc3ccc(F)cc23)CC1,Potency,[1],active: 11.2 µM
C=CCCCCCCCCc1nc(SCC(C)=O)n[nH]1,Potency,[1],"inconclusive [inhibitor, single point]"
CCOc1ccc(NC(=S)c2ccncc2)cc1,Potency,[1],"inconclusive [inhibitor, single point]"
O=C(/C=C/c1ccco1)N1CCc2ccccc21,Potency,[1],"inconclusive [inhibitor, partial curve, poor fit]"
COc1ccc(Cn2ccnc2SCC(=O)Nc2ccc3c(c2)OCO3)cc1,Potency,[1],"inconclusive [inhibitor, single point]"
CCCCn1c(N)c(N(CCC(C)C)C(=O)c2ccc(N3CCCC3=O)cc2)c(=O)[nH]c1=O,Potency,[1],inactive
CCOc1ccc(NCC(=O)Nc2ccc(Cl)cc2C)cc1,Potency,[1],"inconclusive [inhibitor, single point]"
O=C(CSc1ccc(-c2cccc([N+](=O)[O-])c2)nn1)N1CCCCCC1,Potency,[1],"inconclusive [inhibitor, partial curve]"
COc1ccc2nc(N3CCCCC3)c(/C=C3\SC(=S)NC3=O)cc2c1,Potency,[1],"inconclusive [inhibitor, single point]"
CC(=O)C[C@H]1c2ccccc2S(=O)(=O)N1c1ccccc1,"activity change, negative = growth inhibition",[1],inconclusive: -33.5% [inhibitor]
same,"activity change, negative = growth inhibition",at 46.2 µM (top of the series),inactive: 5.84%
Cc1cccc(NC(=S)N(CCN(C)C)Cc2cc3cc(C)cc(C)c3[nH]c2=O)c1,Potency,[1],"inconclusive [inhibitor, single point]"
O=C(O)c1ccccc1C1c2ccccc2Oc2ccccc21,Potency,[1],inactive
COCC(=O)OCC(=O)Nc1ccccc1-c1ccccc1,Potency,[1],inactive
N#Cc1ccc(-c2csc(NC(=O)C3CC3)n2)cc1,Potency,[1],active: 0.731 µM
CSC(=S)NN=C(C)c1cccc(C)n1,Potency,[1],active: 0.0326 µM
Cc1ccc(S(=O)(=O)NCC(=O)N/N=C/c2ccc(Cl)cc2Cl)cc1,Potency,[1],inactive
CC(Sc1nc2ccccc2c(=O)n1CCCN1CCOCC1)C(=O)N1CCc2ccccc21 (configuration not stated),Potency,[1],inactive
CCOC(=O)c1c(C)c(C(=O)NC2CCCCC2)c(C)n1CC,Potency,[1],"inconclusive [inhibitor, single point]"
COc1ccccc1NS(=O)(=O)c1ccc2oc(SCC(C)=O)nc2c1,Potency,[1],inactive
COc1ccc(-n2c(SCC(=O)N3CCCC(C)C3)nnc2-c2cccnc2)cc1 (configuration not stated),Potency,[1],"inconclusive [inhibitor, single point]"
COC(=O)C1CCN(C(=O)CSc2nnc(-c3ccccc3)o2)CC1,Potency,[1],inactive
CCN(CC)Cc1ccccc1CNC(=O)c1cccc(S(=O)(=O)Nc2ccc3c(c2)OCO3)c1,Potency,[1],"inconclusive [inhibitor, single point]"
Cc1ccc(NC(=O)N2CC3CCCN3c3ccccc32)cc1C (configuration not stated),Potency,[1],active: 18.4 µM
O=C(CCc1nnc(CCCCc2ccccc2)o1)NCCC1CCCCO1 (configuration not stated),Potency,[1],inactive
NS(=O)(=O)c1ccc(NC(=O)C(Sc2ccccc2)c2ccccc2)cc1 (configuration not stated),Potency,[1],"inconclusive [inhibitor, single point]"
CN(C)c1ccc(CN(Cc2ccco2)C(=O)COc2ccc(F)cc2)cc1,Potency,[1],"inconclusive [inhibitor, single point]"
CCOC(=O)C1(C)CCCN(C(=O)c2ccccc2C(F)(F)F)C1 (configuration not stated),Potency,[1],inactive
Cc1cccc(C(=O)NCC(c2cccs2)S(=O)(=O)c2cccs2)c1 (configuration not stated),Potency,[1],"inconclusive [inhibitor, partial curve]"
COc1cc(CC(=O)N(C)CC(=O)Nc2ccc(Cl)c(C(F)(F)F)c2)cc(OC)c1OC,Potency,[1],"inconclusive [inhibitor, single point]"
Cc1ccccc1NS(=O)(=O)c1ccc(C(=O)N2CCN(c3ccccn3)CC2)cc1,Potency,[1],"inconclusive [inhibitor, single point]"
O=C(c1ccc(-c2nc3ccccc3s2)s1)N1CCOCC1,Potency,[1],"inconclusive [inhibitor, single point]"
COc1cccc(OC)c1OCC(O)CN1CCN(c2ccc(F)cc2)CC1 (configuration not stated),Potency,[1],"inconclusive [inhibitor, single point]"
COC(=O)CCS(=O)(=O)c1nc(-c2ccccc2)cc(C(F)(F)F)n1,Potency,[1],active: 3.26 µM
COc1ccc(C(=O)Nc2ccc(NC(=O)c3cccs3)cc2)cc1OC,Potency,[1],"inconclusive [inhibitor, single point]"
COc1ccccc1CCNC(=O)C(=O)NCC(c1ccco1)S(=O)(=O)c1cccs1 (configuration not stated),Potency,[1],active: 20.6 µM
C/C(=N\NC(=O)c1cccc2ccccc12)c1ccccn1,Potency,[1],active: 1.16 µM
CCOc1ccccc1Nc1ccnc2cc(Cl)ccc12,Potency,[1],"inconclusive [inhibitor, single point]"
CCS(=O)(=O)c1nc(S(=O)(=O)c2ccc(C)cc2)c(N2CC(C)OC(C)C2)s1 (configuration not stated),Potency,[1],"inconclusive [inhibitor, single point]"
O=C1NC(c2ccccc2)=C(c2nc3ccccc3s2)C(c2ccc(F)cc2)N1 (configuration not stated),Potency,[1],"inconclusive [inhibitor, single point]"
